Measured values reported in PubChem BioAssay AID361 (National Center for Advancing Translational Sciences (NCATS), 2006).
In all, about 51,000 compounds went through this assay and about 600 (1.2%) were called active. Inconclusive means that the source gave no clear call. Such entries were picked first, then a sample of the others. No stated cut-off is given here; in the data, active means potency below about 11 µM; inconclusive means mostly about 12 µM to 25 µM; inactive means weaker than that;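 the screen sought inhibitors and activators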. Potencies of inconclusive entries are left out as doubtful fits.

tested on: pyruvate kinase (Bacillus stearothermophilus); experiment: Pyruvate Kinase; conditions: purified pyruvate kinase, luminescence ATP production; ribose 5-phosphate activator present at AC10
Summary of the method: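 Luminescence read-out: coupled luciferase detection of ATP formed after 2 h RT incubation of 10 nM enzyme with 2 mM PEP, 0.1 mM ADP, 0.7 nM ribose 5-phosphate, 50 mM imidazole pH 7.2, 7 mM MgCl2. Data normalized to full stimulation/inhibition controls.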
Potency means the concentration at half of the fitted maximal effect.

**Q.** `NC(=O)c1cnn2c(C(F)(F)F)cc(-c3ccccc3)nc12` was tested. Which Potency did it give?
**A.** active: 11.3 µM

**Q.** `O=C(Nc1ccccc1)N1CCn2c1nc1ccccc12` was tested. Which Potency did it give?
**A.** active: 9.69 µM

**Q.** For `COC(=O)c1cc2ccsc2n1CC(=O)N(C)c1ccccc1`, which Potency is on record?
**A.** inconclusive [increasing]

**Q.** For `Cc1sc(NC(=O)c2oc3ccccc3c2C)c(C#N)c1C`, which Potency is on record?
**A.** inactive: > 57 µM

**Q.** How did the Potency turn out when `COc1ccc(CNC(=O)c2c(C)cc(=O)oc2C)cc1OC` was run?
**A.** inactive: > 25.6 µM

**Q.** How did the Potency turn out when `CC(=O)c1cccc(NC(=O)CCNS(=O)(=O)c2cccc(C(C)=O)c2)c1` was run?
**A.** inconclusive [increasing]

**Q.** With `N#Cc1nc(Cc2cccc3ccccc23)oc1NCC1CCCO1` (centres undefined) as the compound, how does the Potency read?
**A.** inconclusive [increasing]

**Q.** With `CCCn1c(C)cc(C(=O)COC(=O)c2ccc(Cl)c(S(=O)(=O)N3CCCC3)c2)c1C` as the compound, how does the Potency read?
**A.** inconclusive [decreasing]

**Q.** How did the Potency turn out when `CC(=O)Oc1ccccc1C1OC(=O)c2ccccc2N1C(C)=O` (centres undefined) was run?
**A.** inactive: > 11.4 µM

**Q.** With `CCOC(=O)c1cnc(-n2nc(C)cc2C)nc1NCCc1ccccc1` as the compound, how does the Potency read?
**A.** inconclusive [decreasing]

**Q.** For `Cc1nn(-c2nc3ccccc3[nH]2)c(N)c1-c1ccccc1`, which Potency is on record?
**A.** active: 2.85 µM

**Q.** How did the Potency turn out when `Cc1ccc(-c2nc(Nc3ccccc3)n[nH]2)cc1` was run?
**A.** inconclusive [decreasing]

**Q.** For `Nc1c(C(=O)c2cccs2)oc2ccccc12`, which Potency is on record?
**A.** inconclusive [decreasing]

**Q.** With `CC(=O)c1c(C)nc2ccccc2c1N` as the compound, how does the Potency read?
**A.** active: 2.46 µM

**Q.** With `COc1cc(C)c(Cl)c(C)c1S(=O)(=O)NCc1ccc2c(c1)OCO2` as the compound, how does the Potency read?
**A.** inconclusive [increasing]

**Q.** With `CC1CN(c2nn3c(=O)c4ccccc4nc3c3ccccc23)CC(C)O1` (centres undefined) as the compound, how does the Potency read?
**A.** inconclusive [decreasing]

**Q.** Which Potency does the source give for `CC(=O)Nc1nonc1NC(=O)CSc1nc2ccccc2o1` here?
**A.** inactive: > 57 µM

**Q.** With `COc1ccc(-c2noc(CSc3nc4ccccc4c(=O)n3-c3ccccc3)n2)cc1` as the compound, how does the Potency read?
**A.** inactive: > 57 µM

**Q.** `O=C(NCc1cccnc1)c1cn(-c2ccccc2)nc1-c1cccs1` was tested. Which Potency did it give?
**A.** inconclusive [decreasing]

**Q.** `O=C(OCCCCN1C(=O)c2ccccc2C1=O)c1n[nH]c2ccccc12` was tested. Which Potency did it give?
**A.** inactive: > 57 µM

**Q.** Which Potency does the source give for `Brc1ccc(-c2csc(/N=C/N3CCOCC3)n2)cc1` here?
**A.** inconclusive [decreasing]

**Q.** How did the Potency turn out when `Cc1ccc(N=Cc2nc(-c3ccco3)oc2O)cc1` was run?
**A.** inconclusive [decreasing]

**Q.** How did the Potency turn out when `O=c1cc(-c2ccccc2)nc2n1Cc1ccccc1-2` was run?
**A.** active: 0.878 µM

**Q.** Which Potency does the source give for `Cc1ccc2c(n1)sc1c(N)ncnc12` here?
**A.** inconclusive [decreasing]

**Q.** With `Cn1cc(-c2nc3ccccc3[nH]2)c2ccccc21` as the compound, how does the Potency read?
**A.** inconclusive [decreasing]

**Q.** `Fc1cccc(Cl)c1CSc1nnc(COc2cccc3cccnc23)o1` was tested. Which Potency did it give?
**A.** inconclusive [increasing]

**Q.** For `O=C(CN1CCN(Cc2ccccc2)CC1)N1CCCc2c1c(=O)oc1ccc(O)cc21`, which Potency is on record?
**A.** inactive: > 57 µM

**Q.** For `c1cc(-c2nc3ccccc3o2)nc(-c2nc3ccccc3o2)c1`, which Potency is on record?
**A.** inactive: > 57 µM

**Q.** `Cc1nc(N2CCOCC2)c2cc(-c3ccccc3)sc2n1` was tested. Which Potency did it give?
**A.** inconclusive [decreasing]

**Q.** How did the Potency turn out when `N#CC1=C(SCC(=O)c2ccc(Br)cc2)NC2=C(C(=O)CCC2)C1c1ccco1` (centres undefined) was run?
**A.** inconclusive [decreasing]

**Q.** Which Potency does the source give for `CC(=O)Nc1ccc(-c2cc3ccccc3o2)cc1` here?
**A.** inconclusive [decreasing]

**Q.** `COn1c(=S)[nH]c2ccccc2c1=O` was tested. Which Potency did it give?
**A.** inactive: > 25.6 µM

**Q.** For `Cn1nnnc1SCc1nnc(-c2ccc(Cl)cc2)o1`, which Potency is on record?
**A.** inactive: > 57 µM

**Q.** `O=C(Nc1nc2ccccc2n1CCN1CCCC1)C1CCCCC1` was tested. Which Potency did it give?
**A.** inactive: > 57 µM

**Q.** Which Potency does the source give for `Nc1nc(N)c2sc3nc4c(cc3c2n1)CCC4` here?
**A.** inconclusive [decreasing]

**Q.** How did the Potency turn out when `O=C(CCN1C(=O)c2ccccc2C1=O)N1CCN(C(=O)c2ccccc2)CC1` was run?
**A.** inactive: > 57 µM

**Q.** With `CC(C)n1cc(/C=C(\C#N)S(=O)(=O)c2ccccc2)c2ccccc21` as the compound, how does the Potency read?
**A.** inactive: > 57 µM

**Q.** `O=C1c2ccccc2-c2onc3ccc(NCc4ccco4)c1c23` was tested. Which Potency did it give?
**A.** active: 5.26 µM

**Q.** Which Potency does the source give for `COc1ccccc1C(=O)Nc1ccccn1` here?
**A.** inconclusive [decreasing]

**Q.** With `COc1cccc(NC2=NC3(CCCCC3)N=C(N)N2)c1` as the compound, how does the Potency read?
**A.** inconclusive [increasing]

**Q.** `OC(CN1CCN(c2ccccc2)CC1)c1c[nH]c2ccccc12` (centres undefined) was tested. Which Potency did it give?
**A.** inactive: > 57 µM

**Q.** With `C=CCn1c(COc2cccc3cccnc23)nnc1SCC(=O)O` as the compound, how does the Potency read?
**A.** inconclusive [increasing]

**Q.** With `Cc1cccc2cc3c(N)c(C(=O)N4CCOCC4)sc3nc12` as the compound, how does the Potency read?
**A.** inconclusive [decreasing]

**Q.** `O=C(Nn1c(-c2ccccc2)nc2ccccc2c1=O)C1CCC1` was tested. Which Potency did it give?
**A.** inactive: > 57 µM

**Q.** For `Brc1ccccc1-c1nnc2sc(-c3ccc4c(c3)OCCO4)nn12`, which Potency is on record?
**A.** inconclusive [increasing]

**Q.** `Cc1cc(Cl)c(OCCCn2cncn2)c(Br)c1` was tested. Which Potency did it give?
**A.** inconclusive [increasing]

**Q.** With `CCOc1ccc(-c2csc(NC(=O)C3CCCO3)n2)cc1` (centres undefined) as the compound, how does the Potency read?
**A.** inconclusive [decreasing]

**Q.** With `CCOc1ccc(OCc2cccc(C(=O)N3CCCC3)c2)cc1` as the compound, how does the Potency read?
**A.** inconclusive [decreasing]

**Q.** With `O=C(CSc1nnc(-c2cccnc2)n1-c1ccccc1)Nc1ccc2c(c1)OCO2` as the compound, how does the Potency read?
**A.** inconclusive [increasing]

**Q.** Which Potency does the source give for `Nc1nnc(Cc2ccc(Cl)c(Cl)c2)s1` here?
**A.** inconclusive [increasing]

**Q.** Which Potency does the source give for `Cn1c(C(=O)Nc2ccc3c(c2)OCCO3)cc2sccc21` here?
**A.** active: 3.01 µM

**Q.** Which Potency does the source give for `O=C(NCCCN1CCOCC1)c1cc2c(=O)[nH]c3ccccc3c2s1` here?
**A.** inconclusive [decreasing]

**Q.** How did the Potency turn out when `Nc1c(C(=O)NC2CCCC2)c2nc3ccccc3nc2n1/N=C/c1cccnc1` was run?
**A.** inactive: > 57 µM

**Q.** With `COc1ccc(NC(=O)c2cc(-c3cc(C)ccc3O)n[nH]2)cc1Cl` as the compound, how does the Potency read?
**A.** inconclusive [increasing]
